Common to all, as to test: FRET or BRET
What all share (conditions): remark: other sources report otherwise
(In general: In BRET a luciferase serves as donor, and the signal depends on an acceptor being close.)

The target in assay [1] is coilin, tagged with CFP or YFP, P38432.
The target of assay [2] is T1, survival of motor neurons (SMN) protein, tagged with CFP or YFP, Q16637.
Assay [3] has as its target T1, survival of motor neurons (SMN) …. The source holds these as a separate data set.
For assay [4], the target named is coilin, tagged with CFP or YFP, P38432. The source holds these as a separate data set.

B1: coilin, tagged with CFP or YFP (natural protein)
chain: MAASETVRLRLQFDYPPPATPHCTAFWLLVDLNRCRVVTDLISLIRQRFGFSSGAFLGLYLEGGLLPPAESARLVRDNDCLRVKLEERGVAENSVVISNGDINLSLRKAKKRAFQLEEGEETEPDCKYSKKHWKSRENNNNNEKVLDLEPKAVTDQTVSKKNKRKNKATCGTVGDDNEEAKRKSPKKKEKCEYKKKAKNPKSPKVQAVKDWANQRCSSPKGSARNSLVKAKRKGSVSVCSKESPSSSSESESCDESISDGPSKVTLEARNSSEKLPTELSKEEPSTKNTTADKLAIKLGFSLTPSKGKTSGTTSSSSDSSAESDDQCLMSSSTPECAAGFLKTVGLFAGRGRPGPGLSSQT[here about 200 residues without letters]
With B1, the increase in donor fluorescence after acceptor bleaching (FRET) in assay [1] is 10.3%; in assay [2], 6.5%; in assay [3] it was 6.29%; in assay [4], 10.3%.
